# Results published in the supplement of paper PMC12632987.
# Over roughly 4,500 sequences, “median log2 fold change of GCK-ALFA target abundance (FLAG IP / Myc IP barcode read proportion)” has its median near 0.078; the lowest 2% begin near -0.6. The list shows a part of the results.
# B1: GBRAP_125_3043 (protein)
# chain: GEEEQIEALRALAKILGLSEEEVEELAELARKYGVKGALIALLLAEGKEELAELFAKLSEEAVAKVLKEFLAYLKAHPNITREEAIEKLEELAKEALAKE
# B2: GBRAP_184_5058 (protein)
# chain: KIYERVIKAENLEELKEKLDELEEEVKDFKGTLIVLVEVPKFTPEMVETLMARLKEILDKGYASSVTVGLDGEMSEEVRDLAIKLADEAGVNLTLALEEE
# B3: GBRAP_11_2736 (protein)
# chain: EKEKLEKVAKLAEEAAKAADELLEKGVDDEELREKIRKLLEEIEKLVKELNDKFLQKLVEIAKEEFEKSLADPENAEEHLTLARAALRVLEGQVQLLIDE
# B4: GBRAP_160_4106 (protein)
# chain: DEKYEEFLKDVEEVFKEVLELYDKISADELVNYYTVEMSAVIMEAKDELNLSDETVDELLEVVDEGAEKLKENYDKSKEEIKKILEETYKKIKEVLEKNK
# B5: GBRAP_53_6410 (protein)
# chain: MEEEIKKLKEEILKLAEKATEANEEEQKKLAKEIGKKLKELVKAGMSKEELKKLLVEIAKKLKEAGASDKVLVILIKAAVELGLEEAAAEIAELIVEDLE
# B6: GBRAP_52_6208 (protein)
# chain: MAERARRLAEELLALMRAGDREGARALARRIAREWDDEELRVFFEEFVRLAREAAPEDHDLVFELAELLADELEREGREEVLADDFLNAVAAALYEREQA
# B7: GBRAP_117_2568 (protein)
# chain: SEELEKLKEEVEKLVEESVELIEKRKAAPEEEKPKLEKELEELVLKRLEELIKKYGLEKTEELLEEALLDLDAETYFTIESAVIEAINKIKEKRKKEEEE
# B8: GBRAP_52_6130 (protein)
# chain: MKEEAKELVEKLIELEKEGKEEELEKLAREIVETKDDEFLKLIAEELAERAKKATPEEREVIERVGEILAREIEEAGRDEVLADYVESTIAAALYEAEQA
# Target: GABARAP, O95166
# Assay: median log2 fold change of GCK-ALFA target abundance (FLAG IP / Myc IP barcode read proportion) (log2 ratio); each designed protein is fused to an ALFA-tag nanobody in HEK293 cells to bring the named protein to FLAG-tagged glucokinase (GCK); Myc marks an untargeted standard; higher = target protein stabilised (more abundant)
# Details: target protein: 3xFLAG-MCP-GCK-ALFA reporter; HEK293 landing pad (RPLP)
# Procedure, shortened: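 Sequencing of reverse-transcribed, amplified circular RNA barcodes from anti-FLAG and anti-Myc immunoprecipitates provided the readout for an ALFA-nanobody-fused binder library recombined into HEK293 landing-pad cells. Those cells were induced with 2 μg mL^−1 doxycycline, transfected with a plasmid expressing a FLAG-tagged target and a Myc-tagged standard, and lysed after 48 h. Target abundance is the per-binder median log2 ratio of FLAG to Myc barcode read proportions. Only barcodes at a proportion of ≥10^−7 in both replicates and binders with ≥3 barcodes per replicate were kept, with a 10^−6 pseudocount added before the two replicates were pooled.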
# Chain of GABARAP, O95166 (O95166 whole entry, the tested form may be a part): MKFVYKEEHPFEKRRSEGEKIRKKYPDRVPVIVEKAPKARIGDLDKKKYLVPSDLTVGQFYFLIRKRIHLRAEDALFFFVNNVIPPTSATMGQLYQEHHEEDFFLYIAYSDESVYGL
row,Binder,median log2 fold change
1,B1,-0.0155
2,B2,0.139
3,B3,0.101
4,B4,-0.00592
5,B5,0.234
6,B6,0.118
7,B7,0.0895
8,B8,0.127
